Results reported in the supplement of paper PMC11417369.
The other results are listed elsewhere or left out.

System: PfHDP1 homeodomain (GST-tagged)
Test: gcPBM binding intensity (ln(normalized median fluorescence intensity)); higher = stronger DNA binding
In short: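 Binding of GST-tagged P. falciparum DNA-binding domains, expressed in E. coli and used at about 25 μg on average, was carried out for 1 h in 1× PBS containing 1% milk, 0.2 mg/ml BSA, 0.5% salmon testes DNA and 0.03% Triton X-100. The target was an Agilent 4 × 180k array of primer-extended double-stranded 36-bp intergenic genomic probes plus negative controls, read with Alexa488 anti-GST antibody at 488 nm. Binding intensity is the highest Masliner-normalised natural-log median intensity across replicate spots of either probe orientation.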

Row | Sequence | gcPBM binding intensity (ln)
1 | TTCAAATTGTTTATATGTACTTATAAAAATTGTCTG [XGTACX_site977] | 6.34
2 | AATTATACTTCCTTCACACAGTTACATCATATATTA [CACACA_site5942] | 6.94
3 | ATTCACATACATTACTTACACACCATATTAATATAT [CACACA_site459] | 7.49
4 | TAAAAAATAAGATATACACACATATATATATATATA [CACACA_site2324] | 9.35
5 | AAAAAAAAAAAAAAGGAACACACAAGTAACAATAAA [CACACA_site8792] | 6.5
6 | TAACATATTAATAACATATTTATAATATATTAATAA [TGCATGCA_negctrl_site243] | 5.86
7 | TGACCGTTTTAAGAGTGTACAAAAAAAAAAAAAAAA [XGTACX_site4141] | 6.07
8 | TATTCTATATAATAATGTACGTGATTTAAATTTTCA [XGTACX_site6650] | 6.42
9 | AAAATCGTGTTCTGAATACACACTAATACAAAGTTG [CACACA_site3985] | 6.42
10 | AAAAATACCTGAATATGTACATATGATCAATGGGCC [XGTACX_site887] | 6.94
11 | ATTCATATATATTATACACACACATATATAAATATA [CACACA_site8228] | 6.98
12 | AAATAAAATAAAAACATGCACACTTTATTTTTTTTA [CACACA_site2800] | 7.69
13 | AGAAGTTTAAAAAGCACACAAAAAAAAAAAAAAAGA [CACACA_site3309] | 6.08
14 | TAAAAATATAAATTTTGTACGTAAAAAATGGTTCTT [XGTACX_site1506] | 6.38
15 | TATTCCTTATTATAATTCTTAAATAAAAAAAAAAAA [TGCATGCA_negctrl_site45] | 6.28
16 | TAGGATTTTTAGTTTATTGTAACTATTATTTTATTT [CACACA_negctrl_site829] | 6.21
17 | ATATATAAACTGAAGGGTACAATGAAAAAAGAACTT [XGTACX_site7219] | 6.81
18 | CCCATTATTGTTGGGGGTACAATTTTGAATATATAT [XGTACX_site2227] | 7.74
19 | CATATTTGTTGACACACACACATATTTATATAAATA [CACACA_site7648] | 6.9
20 | GGGAGGATATTACACAGTACCCAGAAAATCTACGGA [XGTACX_site2551] | 6.81
21 | TTTATATGTTTAAAATGTACATGTGGTAAAAATTTT [XGTACX_site5907] | 6.89
22 | GTGTGGTTACAGACACGAACACATTTTTTAAATATT [CACACA_negctrl_site83] | 6.57

Row | Sequence | gcPBM binding intensity (ln)
23 | TATATATATTATATAGTGCATTGAAGAAGGGGATTT | 7.74
24 | GTAAGAAAGAAAGGAAGTACGTAAGAAAGTAAGAAC [XGTACX_site1239] | 6.84
25 | TTTTTTTTTCTGTGAGTGCATGTAATAAAATAAATT [GTGCAC_site9740] | 7.42
26 | ATATATTTATAATACACATGCAATGATATAATATAT [TGCATGCA_site20] | 6.55
27 | CATATATACATATATACACACATATATATATATATA [CACACA_site645] | 9.38
28 | CATTCAAACAAAAAAAGTACTCATCACATAATATAT [XGTACX_site1251] | 6.61
29 | GCAAAATATTTAAAATAATATATGTGTATATTTTTA [GTGCAC_negctrl_site149] | 6.38
30 | TTTATATTGTTTTATTGTACATATATATTTATACAT [XGTACX_site6821] | 6.79
31 | AAAAAAAAAAAAAAACTTACGATTTTAAAAAGATGG [GTGCAC_negctrl_site291] | 6.27
32 | GAAATGTACAAATACGTACACACATATATATATATA [CACACA_site1541] | 9.28
33 | TTAATTAGAAATCATACACACATATATATATATATA [CACACA_site173] | 9.37
34 | AAACATGTATTTTATTGTACACATTCATAAATCACA [XGTACX_site1420] | 6.63
35 | TTATAATCTTATATATGTACATATATATATTATTAT [XGTACX_site7780] | 6.48
36 | TACATGTATGTAATATGTTTTATTTTTTTCATCTCT [XGTACX_negctrl_site79] | 5.98
37 | AAATATATGAATAAATGTACGAAATGAATGGATGAA [XGTACX_site7108] | 6.67
38 | TTAGCTATGATATATACACACCAACGAACGAAGAAA [CACACA_site6657] | 6.92
39 | GTCTATTCAAAAAAGTGTACGGACATATAAACATAC [XGTACX_site6516] | 6.88
40 | TATGGTGTAATTTAGTGTATTATATTATTTTGGTTG [GTGCAC_negctrl_site445] | 6.75
41 | TGCAGTCTGGAGAAAAGTACATAGTATCTGGTATCT [XGTACX_site2545] | 6.25
42 | CATTTGATAAGATACACACACAAGGAAAAAAATAAA [CACACA_site350] | 7.07
43 | TATAATAATATTAACACACGTACAAAAGCAAACAAC [CACACA_site3494] | 7.56
44 | TTATAATATCTATATATCTTTTACATTTATAAGTTT [CACACA_negctrl_site1473] | 6.25

Row | Sequence | gcPBM binding intensity (ln)
45 | TTTTTTTTTTTTTTTGCACACAGGGTGTAGGACAAG [CACACA_site2842] | 9.54
46 | ATATATATATTCCACACACACACAAAAAAAAAAAAA [CACACA_site3648] | 7.51
47 | ATAAAATAAGATCTTTTTTTTTTTTTTTTCTTTTCT [XGTACX_negctrl_site73] | 6.03
48 | AACAAATAAATAAATAAAAAGCAAATATGTCTATAT [GTGCAC_negctrl_site414] | 6.57
49 | TATAACTTTTTTATTACACACCTATGCAATATTATA [CACACA_site6570] | 7.04
50 | TACAGATAATATATTGCACACGTCAGAATAATATAG [CACACA_site5036] | 9.93
51 | TGGTTAATATGTGAAAGTACATATTATATTAAAATG [XGTACX_site2636] | 6.35
52 | AAAAAGAAAAAACTTACACACATATATACAGACATG [CACACA_site550] | 6.71
53 | AATATACAATAAAGGTGTACACATATATGATGCAAG [XGTACX_site7607] | 7.64
54 | TTATAATCCATAATTGCACACAATATATTCATATTT [CACACA_site3916] | 10.1
55 | AGATATAGGAAAATAATATATATATATTTTTTTTTT [CACACA_negctrl_site461] | 6.18
56 | ATATATATATATATATGTACTTATAAGGTATATTTA [XGTACX_site3327] | 9.36
57 | TATATTTATTTATACACATGCATATTTTAAGGGCTC [TGCATGCA_site885] | 6.76
58 | ATTTATTTATTTATTTGTACATATAAATATATCAAA [XGTACX_site7383] | 6.58
59 | AAAGATGTTATATATATGTATATATATATGTAATAT [TGCATGCA_negctrl_site386] | 6.56
60 | CATATAATTATATATCGTACATATTAATATAATTAC [XGTACX_site401] | 6.46
61 | AGTATACAGATATATACACACATATATTTATTTATA [CACACA_site6279] | 6.47
62 | TACATTCATGTGTATTGTACAAACTATTTTATAATA [XGTACX_site7744] | 6.63
63 | TACATATTTTTTATGTGTACATATTTTTTATGTGTA [XGTACX_site443] | 6.23
64 | ACAATCCTAACGACATGTACAAATATATATATTTTT [XGTACX_site7335] | 6.54
65 | GCATATTTTATAATTTTACACACCATATAAAATAAT [CACACA_site8904] | 6.83
66 | TATATAATATATATAGTGCATAAGTTCAAAAGAATA [GTGCAC_site9805] | 9.15

Row | Sequence | gcPBM binding intensity (ln)
67 | CCAACATTTTTTAGAAGTACATTTTTATATTTATTA [XGTACX_site5179] | 6.15
68 | AAATAAAAACATAACAGTACAGTTAACATTTTTATA [XGTACX_site3479] | 6.19
69 | TATATATATATATATGTACACACATATATACCTTTC [CACACA_site8854] | 9.31
70 | TGTAATAATCTTACATGTACATACATATATTATATA [XGTACX_site4012] | 6.58
71 | GATGGAAGGTGAAAGCGTACTTATTATAGTAATATA [XGTACX_site303] | 6.45
72 | AGGTACTTTTTTAAAACACACATATAATATATACAC [CACACA_site1065] | 6.72
73 | AAACAAAGAAAGAACACACATACACAATATACCTAC [CACACA_site2835] | 6.92
74 | ATATATGTGTATGTATGTACTCATTTTTGTATATAT [XGTACX_site490] | 6.33
75 | TTATATATTTATATTTGTACGTATAAATTTTTTTTT [XGTACX_site2833] | 6.28
76 | CATTTAAATTATAAGTGTACACGATCATATTTCATC [XGTACX_site349] | 6.69
77 | TATTTTGAAAAAGTTGCACACAAAATTTAAAAAAAA [CACACA_site8470] | 9.29
78 | ATAATGATATATTATAAACACACAAAGATGAATATA [CACACA_site8914] | 6.56
79 | AGGATATGCAGACACACACACATATATATATATATA [CACACA_site2201] | 9.34
80 | TTTTTTAATAATAGGAAAATGAATATTATATCGAAT [TGCATGCA_negctrl_site543] | 6.53
81 | GTTATAGAAGCATTCACACACACACCCACATACACA [CACACA_site1465] | 7
82 | TTACATAATATATGTACACACGCAAATACTTAGAAT [CACACA_site320] | 6.63
83 | AAACGATTACTGTGTACACACATAGTTATAAACATA [CACACA_site5195] | 6.71
84 | GAATGTTAACGTTGCACACAAAAAAAAAGTATACAT [CACACA_site2415] | 9.39
85 | TTTTTTTTTTTTTCAAGTACATAACTTACCCCTTTT [XGTACX_site6207] | 6.37
86 | TTATATGCATAAAAACGTACAAAAATGTATTCATGT [XGTACX_site2215] | 6.49
87 | ATAAATATATGAAATATACACACTTCTTTGGTATTA [CACACA_site456] | 6.3
88 | TTTCGTAACTATTTGTGTACATATATATATATATAT [XGTACX_site2920] | 9.32
